Assay results from the supplement of paper PMC12217912.
The list shows a part of the results. The full chains were built here from the parent and the listed change. Values near 0.05 are background.

B1: TEV protease; numbered along this chain (parent)
chain: MGESLFKGPRDYNPISSSICHLTNESDGHTTSLYGIGFGPFIITNKHLFRRNNGTLVVQSLHGVFKVKDTTTLQQHLVDGRDMIIIRMPKDFPPFPQKLKFREPQREERICLVTTNFQTKSMSSMVSDTSCTFPSGDGIFWKHWIQTKDGQCGSPLVSTRDGFIVGIHSASNFTNTNNYFTSVPKNFMELLTNQEAQQWVSGWRLNADSVLWGGHKVFMVKPEEPFQPVKEATQL

Variants of: B1
Assay: raw area under fraction-flipped curve 0-4 h after induction (AUC4h, not background-subtracted), DNA-recorder readout of cleavage of the substrate (dimensionless); higher = more cleavage of the substrate by the protease variant
Conditions: temperature: 34 °C; time window: 0-4 h after rhamnose induction
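Further: Bxb1 expression induced with 0.2% (w/v) L-rhamnose at OD600 near 0.5, cultures sampled hourly, flipped fraction per protease–substrate barcode pair counted by paired-end Illumina sequencing.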

| Variant | area with substrate ENCYFQS | area with substrate ENDYFQS | area with substrate ENHYFQS | area with substrate ENNYFQS | area with substrate ENPYFQS | area with substrate ENSYFQS | area with substrate ENWYFQS | area with substrate ENYYFQS | area with substrate ENEYFQS | area with substrate ENFYFQS | area with substrate ENGYFQS | area with substrate ENQYFQS | area with substrate ENRYFQS | area with substrate ENTYFQS | area with substrate ENVYFQS | area with substrate ENKYFQS | area with substrate ENIYFQS |
| --- | --- | --- | --- | --- | --- | --- | --- | --- | --- | --- | --- | --- | --- | --- | --- | --- | --- |
| MGESLFKGPRDYNPISSSICHLTNESDGHTTSLYGIGFGPFIITNKHLFRRNNGTLVVQSLHGVFKVKDTTTLQQHLVDGRDMIIIRMPKDFPPFPQKLKFREPQREERICLVTTNFQTNSMSSMVSDTSCTFPSGDGIFWKHWIQTKDGQCGSPLVSTRDGFIVGIHSASNFTNTNNYFTSVPKNFMELLTNQEAQQWVSGWRLNADSVLWGGHKVFMVKPEEPFQPVKEATQL [K120N] | 0.0655 | 0.0086 | 0.0476 | 0.059 | 0.0533 | 0.0666 | 0.004 | 0.0827 |  |  |  |  |  |  |  |  |  |
| MGESLFKGPRDYNPISSSICHLTNESDGHTTSLYGIGFGPFIITNKHLFRRNNGTLVVQSLHGVFKVKDTTTLQQHLVDGRDMIIIRMPKDFPPFPQKLKFREPQREERICLVTTNFQTESMSSMVSDTSCTFPSGDGIFWKHWIQTKDGQCGSPLVSTRDGFIVGIHSASNFTNTNNYFTSVPKNFMELLTNQEAQQWVSGWRLNADSVLWGGHKVFMVKPEEPFQPVKEATQL [K120E] | 0.0621 | 0.0611 |  | 0.0516 |  | 0.0544 |  | 0.0545 | 0.0625 | 0.0642 | 0.0608 | 0.0616 | 0.0464 | 0.0398 | 0.0632 |  |  |
| MGESLFKGPRDYNPISSSICHLTNESDGHTTSLYGIGFGPFIITNKHLFRRNNGTLVVQSLHGVFKVKDTTTLQQHLVDGRDMIIIRMPKDFPPFPQKLKFREPQREERICLVTTNFQTKSMSSMVSDTSCTFPSGDGIFWKHWIQTKDGQCGSPLVSTMDGFIVGIHSASNFTNTNNYFTSVPKNFMELLTNQEAQQWVSGWRLNADSVLWGGHKVFMVKPEEPFQPVKEATQL [R160M] | 0.0609 | 0.0604 | 0.074 | 0.0666 |  |  |  |  | 0.0478 |  |  |  |  |  |  | 0.063 |  |
| MGESLFKGPRDYNPISSSICHLTNESDGHTTSLYGIGFGPFIITNKHLFRRNNGTLVVQSLHGVFKVKDTTTLQQHLVDGRDMIIIRMPKDFPPFPQKLKFREPQREERICLVTTNFQTKSMSSMVSDTSCTFPSGDGIFWKHWIQTKDGQCGSPLVSTTDGFIVGIHSASNFTNTNNYFTSVPKNFMELLTNQEAQQWVSGWRLNADSVLWGGHKVFMVKPEEPFQPVKEATQL [R160T] | 0.0538 |  |  |  |  | 0.0418 | 0.024 | 0.0558 | 0.0527 |  | 0.052 | 0.0618 |  | 0.0593 | 0.0844 |  | 0.117 |
| MGESLFKGPRDYNPISSSICHLTNESDGHTTSLYGIGFGPFIITNKHLFRRNNGTLVVQSLHGVFKVKDTTTLQQHLVDGRDMIIIRMPKDFPPFPQKLKFREPQREERICLVTTNFQTKSMSSMVSDTSCTFPSGDGIFWKHFIQTKDGQCGSPLVSTRDGFIVGIHSASNFTNTNNYFTSVPKNFMELLTNQEAQQWVSGWRLNADSVLWGGHKVFMVKPEEPFQPVKEATQL [W144F] | 0.0746 |  | 0.0591 | 0.0686 | 0.053 | 0.0709 |  | 0.0611 | 0.0434 | 0.0621 | 0.0698 |  |  | 0.0606 |  | 0.0612 | 0.119 |
| MGESLFKGPRDYNPISSSICHLTNESDGHTTSLYGIGFGPFIITNKHLFRRNNGTLVVQSLHGVFKVKDTTTLQQHLVDGRDMIIIRMPKDFPPFPQKLKFREPQREERICLVTTNFQTKSMSSMVSDTSCTFPSGDGIFWKHGIQTKDGQCGSPLVSTRDGFIVGIHSASNFTNTNNYFTSVPKNFMELLTNQEAQQWVSGWRLNADSVLWGGHKVFMVKPEEPFQPVKEATQL [W144G] | 0.0613 | 0.0631 | 0.0776 | 0.0564 | 0.0695 | 0.0556 | 0.0635 |  |  | 0.0637 | 0.077 | 0.0672 | 0.0519 | 0.0722 | 0.0839 | 0.0677 | 0.0781 |
| MGESLFKGPRDYNPISSSICHLTNESDGHTTSLYGIGFGPFIITNKHLFRRNNGTLVVQSLHGVFKVKDTTTLQQHLVDGRDMIIIRMPKDFPPFPQKLKFREPQREERICLVTTNFQTKSMSSMVSDTSCTFPSGDGIFWKHAIQTKDGQCGSPLVSTRDGFIVGIHSASNFTNTNNYFTSVPKNFMELLTNQEAQQWVSGWRLNADSVLWGGHKVFMVKPEEPFQPVKEATQL [W144A] | 0.0869 | 0.0599 | 0.0613 | 0.0677 | 0.0335 | 0.0592 |  | 0.0905 | 0.0678 |  | 0.0635 | 0.0723 | 0.048 |  |  | 0.0728 | 0.0903 |
| MGESLFKGPRDYNPISSSICHLTNESDGHTTSLYGIGFGPFIITNKHLFRRNNGTLVVQSLHGVFKVKDTTTLQQHLVDGRDMIIIRMPKDFPPFPQKLKFREPQREERICVVTTNFQTKSMSSMVSDTSCTFPSGDGIFWKHWIQTKDGQCGSPLVSTRDGFIVGIHSASNFTNTNNYFTSVPKNFMELLTNQEAQQWVSGWRLNADSVLWGGHKVFMVKPEEPFQPVKEATQL [L112V] | 0.0655 | 0.0606 | 0.0646 |  |  | 0.0672 |  | 0.0662 | 0.0623 | 0.065 | 0.0811 | 0.0619 | 0.0605 |  |  |  |  |
| MGESLFKGPRDYNPISSSICHLTNESDGHTTSLYGIGFGPFIITNKHLFRRNNGTLVVQSLHGVFKVKDTTTLQQHLVDGRDMIIIRMPKDFPPFPQKLKFREPQREERICLVTTNFQTKSMSSMVSDTSCTFPSGDGIFHKHWIQTKDGQCGSPLVSTRDGFIVGIHSASNFTNTNNYFTSVPKNFMELLTNQEAQQWVSGWRLNADSVLWGGHKVFMVKPEEPFQPVKEATQL [W141H] | 0.0739 | 0.0559 | 0.0575 |  |  |  | 0.0387 | 0.0636 | 0.0587 | 0.0521 | 0.0481 | 0.0566 | 0.051 | 0.051 | 0.0506 |  | 0.0866 |
